Data published in the supplement of paper PMC3334620.
Whole data set: some 33,000 sequences, median “E-score (-0.5 to 0.5)” near -0.021, cut for the highest 2% near 0.32. The list shows a part of the results.

target: T1, Zap1 (UniProt P47043); test: PBM E-score (8-mer binding enrichment) (E-score (-0.5 to 0.5)); higher = stronger / more preferred TF binding; most listed sequences are background and not binding sites; details: protein concentration: 200 nM; construct: GST-full length
T1 sequence: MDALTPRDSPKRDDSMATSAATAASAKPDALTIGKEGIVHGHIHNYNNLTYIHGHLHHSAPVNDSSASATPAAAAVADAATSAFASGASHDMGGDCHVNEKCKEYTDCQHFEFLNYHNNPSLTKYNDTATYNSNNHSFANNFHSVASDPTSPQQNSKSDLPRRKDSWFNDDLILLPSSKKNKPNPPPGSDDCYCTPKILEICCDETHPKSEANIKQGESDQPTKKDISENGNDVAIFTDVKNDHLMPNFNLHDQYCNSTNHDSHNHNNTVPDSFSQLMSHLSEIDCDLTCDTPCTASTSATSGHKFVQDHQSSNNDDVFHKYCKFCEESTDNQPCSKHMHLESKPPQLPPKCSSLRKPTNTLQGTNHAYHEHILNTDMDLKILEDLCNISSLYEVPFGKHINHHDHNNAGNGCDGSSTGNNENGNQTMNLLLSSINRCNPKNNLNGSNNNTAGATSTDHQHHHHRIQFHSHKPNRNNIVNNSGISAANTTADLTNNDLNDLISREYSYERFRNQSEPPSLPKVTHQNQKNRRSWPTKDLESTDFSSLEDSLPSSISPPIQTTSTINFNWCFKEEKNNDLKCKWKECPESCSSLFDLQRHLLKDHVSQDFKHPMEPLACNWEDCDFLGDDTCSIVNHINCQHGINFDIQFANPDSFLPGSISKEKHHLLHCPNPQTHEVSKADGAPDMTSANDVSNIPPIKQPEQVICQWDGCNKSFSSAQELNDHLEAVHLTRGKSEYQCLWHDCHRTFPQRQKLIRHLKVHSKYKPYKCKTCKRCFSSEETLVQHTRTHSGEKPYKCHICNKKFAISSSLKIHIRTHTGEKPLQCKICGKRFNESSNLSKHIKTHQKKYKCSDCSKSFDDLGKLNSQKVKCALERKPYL
Experimental: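 Universal 'all 10-mer' protein binding microarrays (Agilent AMADID 015681) probed with GST-tagged S. cerevisiae TFs (full-length or DBD) made by in vitro transcription/translation (PURExpress), about 100-200 nM. Bound TF was detected with fluorescent anti-GST. Each ungapped 8-mer (which stands for itself and its reverse complement) is scored by the PBM enrichment score (E-score), a modified Wilcoxon-Mann-Whitney statistic from -0.5 to +0.5, computed with the Universal PBM Analysis Suite. Scale: above 0.35 generally sequence-specific binding.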

Row | Sequence | PBM E-score
1 | GTAGTAAA | 0.122
2 | GTCTTCAC | -0.179
3 | CTATCAAG | 0.113
4 | GGGGCCTA | -0.136
5 | ACATAATG | 0.0777
6 | ACGATAAT | 0.105
7 | ATAATTAC | 0.222
8 | GTCTTCCA | -0.128
9 | ATCCGCAG | 0.0242
10 | CGCTATAG | -0.238
11 | GCACGTAA | -0.0744
12 | GTTAGGTA | 0.298
13 | ATATCGTA | 0.0358
14 | AAGGACAG | -0.0292
15 | CTGCGAAC | -0.0819
16 | AATGGAGG | -0.175
17 | AGATATAC | -0.0654
18 | GCGACGGA | -0.262
19 | ACAGGAGG | -0.146
20 | ATAGAGCC | -0.181
21 | GGCAGGTA | 0.0889
22 | CCAAGGTA | 0.258
23 | AAAGACTC | -0.0734
24 | CCATGCCG | -0.114
25 | ATATTAGA | 0.166

Row | Sequence | PBM E-score
26 | GTGTTAAA | 0.0467
27 | AAGGATAA | -0.0167
28 | ACCGGCTA | 0.034
29 | GCTTGACC | 0.214
30 | GGAAGCGA | -0.14
31 | AAAGGAGA | -0.118
32 | ATGTCCGG | -0.00626
33 | AGAAACGC | -0.011
34 | TGAATTCA | 0.174
35 | AGATGTTA | -0.14
36 | AAAAAGTT | 0.0802
37 | GGACATCA | 0.0434
38 | AGATATGA | 0.0313
39 | CAGATACG | -0.0298
40 | AAACGCCT | -0.318
41 | CCACGTCA | -0.208
42 | GATCGTGA | 0.0072
43 | CGCTCAGC | -0.137
44 | CGAGTGAA | -0.067
45 | GAAATGTA | -0.0667
46 | CGTCTGCA | -0.0236
47 | CTCGAAGA | 0.0261
48 | ATCTAGAC | 0.0431
49 | GTCTGAGA | -0.248
50 | CATCTCAA | 0.00336

Row | Sequence | PBM E-score
51 | GACTTCCA | -0.327
52 | AAATCTCA | 0.18
53 | TGACCGCA | 0.232
54 | CAGAATAC | 0.0783
55 | CCCCGCAC | -0.0153
56 | AATGTAAC | 0.194
57 | GGAGAGGA | -0.282
58 | AGCAAATC | 0.00378
59 | CCAATCCG | -0.072
60 | AGGGTCAC | 0.417
61 | GAGGGTTA | 0.45
62 | TAAATGTA | 0.137
63 | GCCGACCC | -0.0441
64 | ACTGTTGC | -0.173
65 | AGCTAAGA | -0.167
66 | GAGTCAAA | -0.237
67 | ACGTCATC | -0.266
68 | CATTCTCG | 0.0376
69 | CCATGGGC | 0.0237
70 | CACATAAA | 0.228
71 | ATTGATAC | 0.185
72 | GGTGTGAC | -0.0885
73 | CAACACTC | -0.0692
74 | TAGTCAGA | -0.13
75 | CGCCCATA | -0.0169

Row | Sequence | PBM E-score
76 | GCCGTGTA | -0.0617
77 | CGTCGTAG | -0.189
78 | CGAGCGAA | -0.162
79 | GTCGAGAC | -0.0863
80 | TTGCCCAA | -0.147
81 | AGTCCGTG | -0.261
82 | GGCGAGAA | -0.0576
83 | CCTTGACC | 0.227
84 | CTGAACTA | -0.11
85 | AACTCATG | 0.129
86 | GAGGGTCC | 0.134
87 | AATTGCAG | 0.0785
88 | TACTCACA | 0.0205
89 | CGTATGTA | -0.0732
90 | ACGGCACG | -0.234
91 | GCGCCGAA | -0.187
92 | CATGATCC | 0.223
93 | ACCCAGCC | -0.139
94 | TAGTTAAA | 0.234
95 | GGCGGTCA | 0.12
96 | AAAGCCGA | -0.219
97 | CCTACCTA | 0.0396
98 | CAGAGCCC | -0.256
99 | CCGTGGGA | -0.205
100 | CCGACCAC | -0.0404

Row | Sequence | PBM E-score
101 | CTGCTAGC | -0.42
102 | CTGAATTA | 0.0845
103 | AAATTACT | 0.0438
104 | AGCGCAAT | 0.0635
105 | ACTAGGAC | -0.037
106 | AGATCTTG | -0.0733
107 | AACTCTGA | 0.0729
108 | AACCAGAA | 0.219
109 | GAAAGTGA | -0.0718
110 | AGGCATAA | -0.124
111 | CTGCACTA | 0.0904
112 | CAATATAG | 0.138
113 | CAGAAAGC | -0.078
114 | AAGTCCGT | -0.0811
115 | ACGTCGAA | -0.105
116 | GGTTTAAA | 0.18
117 | GTGCACAA | -0.0541
118 | ATTGTCTG | 0.144
119 | ATGGTCGG | 0.173
120 | AGTACCGC | 0.247
121 | CGTTATGC | -0.0965
122 | CTTACTGA | -0.0873
123 | CCCGATAG | -0.0131
124 | ATCTACAC | 0.112
125 | CGGCCTAC | -0.00197

Row | Sequence | PBM E-score
126 | ACTTTGTA | 0.209
127 | CAATTCCA | -0.0645
128 | CCCCTACC | 0.0857
129 | ACAAAAAG | 0.141
130 | ACAAGCAT | -0.136
131 | GAAGTAGA | 0.00766
132 | ATGCTGAC | -0.0875
133 | CGATGCTC | -0.255
134 | TAAACGGA | 0.104
135 | TCACTGCA | 0.0966
136 | AGCCACAG | -0.199
137 | CGATACGA | 0.0895
138 | ACTTTTAT | 0.0181
139 | AATAAGAT | -0.0599
140 | TGGGTACA | 0.174
141 | TAGCGTGA | 0.0134
142 | GGGTAATA | 0.348
143 | ATCATTTG | 0.0524
144 | TTAGCGAA | 0.0536
145 | CATTGAAG | -0.213
146 | CGGCTCGC | -0.0535
147 | CAGCAAAC | 0.139
148 | CCCTACTA | 0.0859
149 | GATATGTA | 0.0232
150 | CTCCATTA | -0.114

Row | Sequence | PBM E-score
151 | AGGCAGCA | -0.141
152 | CGTGCCAG | -0.316
153 | AAGGTGAT | 0.296
154 | CCGACGAC | -0.00208
155 | AATATAAT | -0.0639
156 | CCTTAGAC | 0.0339
157 | ACCACAAA | 0.35
158 | ATCGTCCC | 0.0745
159 | CCCTCCAG | 0.215
160 | AACCTCGC | 0.295
161 | GACCGAGA | -0.0995
162 | AAGCGTCG | -0.338
163 | GTTGCCGA | -0.0812
164 | CGTCTTCC | -0.255
165 | GCCATCAA | -0.0506
166 | TAACTTGA | 0.194
167 | CCTACGCA | -0.125
168 | AGCCTACT | -0.212
169 | AGTCGCTC | -0.182
170 | CAGCATTC | -0.223
171 | ACTTCTGG | -0.0196
172 | ATCTGAAC | 0.0088
